Data as given in the supplement of paper PMC10369915.
Some of the results follow. Cut-off read from the data, not from the text of the source: active = 3.2 or more and inactive = the rest. The signal is at background level for most entries.

What was measured:
Test in all cases: enrichment score (SH2-bound / input frequency) (ratio); bacterial display of known human phosphotyrosine sites (pTyr-Var adds point mutants) read by sequencing; higher = stronger binding; tyrosines were phosphorylated by kinases first
Settings in all cases: peptide library: pTyr-Var
SHP2 C-SH2 domain E139D = molecular target: SHP2 C-SH2 domain E139D
[1] = molecular target: SHP2 C-SH2 domain wild-type
SHP2 N-SH2 domain L43F = molecular target: SHP2 N-SH2 domain L43F
SHP2 N-SH2 domain T42A = molecular target: SHP2 N-SH2 domain T42A
SHP2 N-SH2 domain T52S = molecular target: SHP2 N-SH2 domain T52S
[2] = molecular target: SHP2 N-SH2 domain wild-type

Measured: enrichment score
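Note: displayed peptides selected on beads carrying the immobilized SH2 domain, with library peptides lacking any tyrosine serving as negative controls.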

FSEVRYMKEPY [HIPK4_Y170_V171M]
inactive: SHP2 C-SH2 domain E139D 0.932 | [1] 0.957 | SHP2 N-SH2 domain L43F 0.827 | SHP2 N-SH2 domain T42A 0.854 | SHP2 N-SH2 domain T52S 0.99 | [2] 1.03

TIQIMYGCDVG [HLA-A_Y123]
inactive: SHP2 C-SH2 domain E139D 1.09 | [1] 1.3 | SHP2 N-SH2 domain L43F 1.31 | SHP2 N-SH2 domain T42A 1.05 | SHP2 N-SH2 domain T52S 1.03 | [2] 1.62

GGQSVYHVNLH [HINT1_Y109_H112N]
inactive: SHP2 C-SH2 domain E139D 0.799 | [1] 0.609 | SHP2 N-SH2 domain L43F 0.536 | SHP2 N-SH2 domain T42A 0.545 | SHP2 N-SH2 domain T52S 0.751 | [2] 0.749

TIQMMYGCDVG [HLA-A_Y123_I121M]
inactive: SHP2 C-SH2 domain E139D 1.03 | [1] 1.05 | SHP2 N-SH2 domain L43F 0.921 | SHP2 N-SH2 domain T42A 0.744 | SHP2 N-SH2 domain T52S 0.807 | [2] 1.17

KQMEQYMSFHK [HCN1_Y417_V414M]
inactive: SHP2 C-SH2 domain E139D 0.894 | [1] 0.741 | SHP2 N-SH2 domain L43F 1.14 | SHP2 N-SH2 domain T42A 0.897 | SHP2 N-SH2 domain T52S 0.634 | [2] 1.02

KQVEQYMSFHK [HCN1_Y417]
inactive: SHP2 C-SH2 domain E139D 0.932 | [1] 1.01 | SHP2 N-SH2 domain L43F 0.923 | SHP2 N-SH2 domain T42A 0.77 | SHP2 N-SH2 domain T52S 0.755 | [2] 0.908

APNEFYDGDHD [HDAC3_Y414]
inactive: SHP2 C-SH2 domain E139D 0.4 | [1] 0.6 | SHP2 N-SH2 domain L43F 0.463 | SHP2 N-SH2 domain T42A 0.485 | SHP2 N-SH2 domain T52S 0.372 | [2] 0.436

GNLLIYTEFGN [HGD_Y166_K171N]
inactive: SHP2 C-SH2 domain E139D 1.14 | [1] 1.29 | SHP2 N-SH2 domain L43F 1.11 | SHP2 N-SH2 domain T42A 0.979 | SHP2 N-SH2 domain T52S 1.13 | [2] 1.25

PVQAADQKVVA [HBB_Y131_Y131D]
inactive: SHP2 C-SH2 domain E139D 0.412 | [1] 0.58 | SHP2 N-SH2 domain L43F 0.449 | SHP2 N-SH2 domain T42A 0.425 | SHP2 N-SH2 domain T52S 0.616 | [2] 0.556

FSEVRYMKEPF [HIPK4_Y170_V171M_YF]
inactive: SHP2 C-SH2 domain E139D 1.05 | [1] 0.714 | SHP2 N-SH2 domain L43F 0.666 | SHP2 N-SH2 domain T42A 1.02 | SHP2 N-SH2 domain T52S 0.828 | [2] 1.03

GLNKDYRMVVN [HINT1_Y94_G93D]
inactive: SHP2 C-SH2 domain E139D 0.679 | [1] 0.812 | SHP2 N-SH2 domain L43F 0.715 | SHP2 N-SH2 domain T42A 0.586 | SHP2 N-SH2 domain T52S 0.56 | [2] 0.746

TIQIMFGCDVG [HLA-A_Y123_Y123F]
inactive: SHP2 C-SH2 domain E139D 1.64 | [1] 1.99 | SHP2 N-SH2 domain L43F 1.66 | SHP2 N-SH2 domain T42A 1.37 | SHP2 N-SH2 domain T52S 1.36 | [2] 2.11

TFRPPYFHRNC [HGD_Y333_YF]
inactive: SHP2 C-SH2 domain E139D 2.04 | [1] 1.73 | SHP2 N-SH2 domain L43F 2.2 | SHP2 N-SH2 domain T42A 1.68 | SHP2 N-SH2 domain T52S 1.94 | [2] 1.3

VDGSLYETHPQ [HK1_Y417_K418E]
inactive: SHP2 C-SH2 domain E139D 0.626 | [1] 0.505 | SHP2 N-SH2 domain L43F 0.701 | SHP2 N-SH2 domain T42A 0.497 | SHP2 N-SH2 domain T52S 0.675 | [2] 0.844

RLLVVYPRTQR [HBB_Y36_W38R]
inactive: SHP2 C-SH2 domain E139D 0.154 | [1] 0.155 | SHP2 N-SH2 domain L43F 0.27 | SHP2 N-SH2 domain T42A 0.31 | SHP2 N-SH2 domain T52S 0.201 | [2] 0.192

ALARKYHGGGG [HBB_Y146_H144R]
inactive: SHP2 C-SH2 domain E139D 0.606 | [1] 0.474 | SHP2 N-SH2 domain L43F 0.483 | SHP2 N-SH2 domain T42A 0.457 | SHP2 N-SH2 domain T52S 0.532 | [2] 0.589

RLRVVYPWTQR [HBB_Y36_L33R]
inactive: SHP2 C-SH2 domain E139D 0.218 | [1] 0.238 | SHP2 N-SH2 domain L43F 0.214 | SHP2 N-SH2 domain T42A 0.298 | SHP2 N-SH2 domain T52S 0.238 | [2] 0.189

RFLRGYRQHAF [HLA-A_Y137_D140H_YF]
inactive: SHP2 C-SH2 domain E139D 0.2 | [1] 0.226 | SHP2 N-SH2 domain L43F 0.286 | SHP2 N-SH2 domain T42A 0.194 | SHP2 N-SH2 domain T52S 0.176 | [2] 0.309

GNLLIYTDFGK [HGD_Y166_E168D]
inactive: SHP2 C-SH2 domain E139D 1.12 | [1] 1.25 | SHP2 N-SH2 domain L43F 1.05 | SHP2 N-SH2 domain T42A 0.979 | SHP2 N-SH2 domain T52S 0.813 | [2] 1.47

PVQDAYQKVVA [HBB_Y131_A129D]
inactive: SHP2 C-SH2 domain E139D 0.653 | [1] 0.641 | SHP2 N-SH2 domain L43F 0.574 | SHP2 N-SH2 domain T42A 0.842 | SHP2 N-SH2 domain T52S 0.583 | [2] 0.711

RFLRGYRQFAF [HLA-A_Y137_D140Y_YF]
inactive: SHP2 C-SH2 domain E139D 0.26 | [1] 0.33 | SHP2 N-SH2 domain L43F 0.286 | SHP2 N-SH2 domain T42A 0.238 | SHP2 N-SH2 domain T52S 0.295 | [2] 0.314

PVQAASQKVVA [HBB_Y131_Y131S]
inactive: SHP2 C-SH2 domain E139D 0.619 | [1] 0.753 | SHP2 N-SH2 domain L43F 0.785 | SHP2 N-SH2 domain T42A 0.614 | SHP2 N-SH2 domain T52S 0.922 | [2] 0.698

PVQAAYQKVVA [HBB_Y131]
inactive: SHP2 C-SH2 domain E139D 0.762 | [1] 0.626 | SHP2 N-SH2 domain L43F 0.851 | SHP2 N-SH2 domain T42A 0.622 | SHP2 N-SH2 domain T52S 0.697 | [2] 0.835

QLHRKYCLSPR [HJURP_Y445_E444K]
inactive: SHP2 C-SH2 domain E139D 0.62 | [1] 0.71 | SHP2 N-SH2 domain L43F 0.714 | SHP2 N-SH2 domain T42A 0.691 | SHP2 N-SH2 domain T52S 0.608 | [2] 0.689

ALAHKCHGGGG [HBB_Y146_Y146C]
inactive: SHP2 C-SH2 domain E139D 1.41 | [1] 1.31 | SHP2 N-SH2 domain L43F 1.31 | SHP2 N-SH2 domain T42A 0.977 | SHP2 N-SH2 domain T52S 1.2 | [2] 1.13

PVQAAYKKVVA [HBB_Y131_Q132K]
inactive: SHP2 C-SH2 domain E139D 0.515 | [1] 0.496 | SHP2 N-SH2 domain L43F 0.482 | SHP2 N-SH2 domain T42A 0.464 | SHP2 N-SH2 domain T52S 0.715 | [2] 0.667

IEDNEYTAREG [HCK_Y411]
inactive: SHP2 C-SH2 domain E139D 0.496 | [1] 0.401 | SHP2 N-SH2 domain L43F 0.643 | SHP2 N-SH2 domain T42A 0.452 | SHP2 N-SH2 domain T52S 0.462 | [2] 0.762

GNLLIYTEFGK [HGD_Y166]
inactive: SHP2 C-SH2 domain E139D 1.46 | [1] 1.13 | SHP2 N-SH2 domain L43F 1.24 | SHP2 N-SH2 domain T42A 0.991 | SHP2 N-SH2 domain T52S 1.07 | [2] 1.4

TIQRMYGCDVG [HLA-A_Y123_I121R]
inactive: SHP2 C-SH2 domain E139D 0.621 | [1] 0.8 | SHP2 N-SH2 domain L43F 0.679 | SHP2 N-SH2 domain T42A 0.876 | SHP2 N-SH2 domain T52S 0.519 | [2] 0.836

ILGLEYSLRVP [HELZ2_Y1304]
inactive: SHP2 C-SH2 domain E139D 1.43 | [1] 1.38 | SHP2 N-SH2 domain L43F 1.23 | SHP2 N-SH2 domain T42A 1.21 | SHP2 N-SH2 domain T52S 1.29 | [2] 1.37

ENFSEYQEIAV [HEMGN_Y150]
inactive: SHP2 C-SH2 domain E139D 0.74 | [1] 0.677 | SHP2 N-SH2 domain L43F 0.686 | SHP2 N-SH2 domain T42A 0.478 | SHP2 N-SH2 domain T52S 0.715 | [2] 0.744

VLAHKYHGGGG [HBB_Y146_A141V]
inactive: SHP2 C-SH2 domain E139D 0.589 | [1] 0.645 | SHP2 N-SH2 domain L43F 0.567 | SHP2 N-SH2 domain T42A 0.592 | SHP2 N-SH2 domain T52S 0.594 | [2] 0.523

QEGPEYWDEET [HLA-A_Y83_Q86E]
inactive: SHP2 C-SH2 domain E139D 0.441 | [1] 0.588 | SHP2 N-SH2 domain L43F 0.368 | SHP2 N-SH2 domain T42A 0.437 | SHP2 N-SH2 domain T52S 0.357 | [2] 0.707

GNLLIYTELGK [HGD_Y166_F169L]
inactive: SHP2 C-SH2 domain E139D 1.36 | [1] 1.05 | SHP2 N-SH2 domain L43F 0.945 | SHP2 N-SH2 domain T42A 0.98 | SHP2 N-SH2 domain T52S 0.957 | [2] 1.28

EEEPVYEAEPE [HCLS1_Y360]
inactive: SHP2 C-SH2 domain E139D 0.418 | [1] 0.748 | SHP2 N-SH2 domain L43F 0.509 | SHP2 N-SH2 domain T42A 0.503 | SHP2 N-SH2 domain T52S 0.413 | [2] 0.819

RGFRQYAFDGK [HLA-A_Y140_D140Y_YF]
inactive: SHP2 C-SH2 domain E139D 0.558 | [1] 0.399 | SHP2 N-SH2 domain L43F 0.294 | SHP2 N-SH2 domain T42A 0.375 | SHP2 N-SH2 domain T52S 0.372 | [2] 0.402

VDGSLYKTHPQ [HK1_Y417]
inactive: SHP2 C-SH2 domain E139D 0.563 | [1] 0.549 | SHP2 N-SH2 domain L43F 0.607 | SHP2 N-SH2 domain T42A 0.557 | SHP2 N-SH2 domain T52S 0.466 | [2] 0.664
